Results are given in words; binding and its absence hold for the method and conditions named. In cells and extracts the contact can be indirect. Some results given as binding are weak or reduced against the parent protein; the word gives no strength. Sequences can lack the tags named with a protein.
Legend:
Assay in all cases: co-IP; HEK293T cells co-transfected for 24 h, lysed in RIPA buffer; immunoprecipitation with mouse monoclonal antibodies to HA, MYC or GFP and protein A-agarose beads; immunoblot with rabbit polyclonal antibodies to HA, MYC or GFP
[1] = target: T1, GFP-tagged DNAH11 N-terminus fragment 1-1000 aa (mouse) (UniProt E9Q7N9)
T1 sequence: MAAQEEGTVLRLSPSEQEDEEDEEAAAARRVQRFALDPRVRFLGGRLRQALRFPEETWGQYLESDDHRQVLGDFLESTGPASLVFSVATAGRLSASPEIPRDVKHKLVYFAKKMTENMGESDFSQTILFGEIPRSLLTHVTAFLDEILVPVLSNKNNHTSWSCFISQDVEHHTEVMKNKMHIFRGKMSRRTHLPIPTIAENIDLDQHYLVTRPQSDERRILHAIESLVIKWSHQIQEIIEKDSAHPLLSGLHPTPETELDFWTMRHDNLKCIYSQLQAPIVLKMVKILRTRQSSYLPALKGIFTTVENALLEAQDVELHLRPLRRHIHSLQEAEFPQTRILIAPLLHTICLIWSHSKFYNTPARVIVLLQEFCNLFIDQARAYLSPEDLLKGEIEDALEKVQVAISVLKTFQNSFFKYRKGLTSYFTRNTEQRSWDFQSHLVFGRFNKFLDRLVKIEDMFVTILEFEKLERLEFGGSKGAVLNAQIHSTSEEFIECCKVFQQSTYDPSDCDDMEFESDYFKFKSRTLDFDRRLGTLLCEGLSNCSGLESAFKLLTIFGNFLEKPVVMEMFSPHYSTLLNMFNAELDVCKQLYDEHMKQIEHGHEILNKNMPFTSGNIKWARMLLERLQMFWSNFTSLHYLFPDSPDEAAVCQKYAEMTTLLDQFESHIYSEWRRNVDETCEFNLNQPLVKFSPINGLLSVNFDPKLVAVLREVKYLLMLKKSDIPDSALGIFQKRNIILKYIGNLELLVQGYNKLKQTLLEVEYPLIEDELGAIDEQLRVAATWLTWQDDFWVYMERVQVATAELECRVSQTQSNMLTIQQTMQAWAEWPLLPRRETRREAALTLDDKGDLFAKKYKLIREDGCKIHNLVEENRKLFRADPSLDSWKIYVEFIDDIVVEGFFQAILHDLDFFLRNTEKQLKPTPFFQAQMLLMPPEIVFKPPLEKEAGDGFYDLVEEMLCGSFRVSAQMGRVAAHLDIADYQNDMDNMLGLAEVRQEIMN

[2] = target: T2, MYC epitope-tagged DNAIC2 (mouse) (UniProt A2AC93)
T2 sequence: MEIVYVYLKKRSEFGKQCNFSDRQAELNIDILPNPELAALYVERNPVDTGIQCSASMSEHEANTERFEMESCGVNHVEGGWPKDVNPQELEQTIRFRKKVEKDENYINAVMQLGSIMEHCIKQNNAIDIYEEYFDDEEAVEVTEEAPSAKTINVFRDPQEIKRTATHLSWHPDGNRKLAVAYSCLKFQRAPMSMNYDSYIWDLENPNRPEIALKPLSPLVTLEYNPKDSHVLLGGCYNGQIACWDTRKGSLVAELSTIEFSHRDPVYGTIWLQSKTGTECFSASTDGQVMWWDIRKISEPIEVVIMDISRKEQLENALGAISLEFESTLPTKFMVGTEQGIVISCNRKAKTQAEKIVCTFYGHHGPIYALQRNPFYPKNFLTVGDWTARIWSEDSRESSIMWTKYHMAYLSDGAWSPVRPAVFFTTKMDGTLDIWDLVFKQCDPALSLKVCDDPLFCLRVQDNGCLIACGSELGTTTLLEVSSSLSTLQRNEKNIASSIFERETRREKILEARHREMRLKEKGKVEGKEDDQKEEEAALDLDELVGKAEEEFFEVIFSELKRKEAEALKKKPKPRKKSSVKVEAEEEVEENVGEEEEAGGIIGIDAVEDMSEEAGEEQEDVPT

[3] = target: T3, GFP-tagged DNAH11 N-terminus fragment 1001-1700 aa (mouse) (UniProt E9Q7N9)
T3 sequence: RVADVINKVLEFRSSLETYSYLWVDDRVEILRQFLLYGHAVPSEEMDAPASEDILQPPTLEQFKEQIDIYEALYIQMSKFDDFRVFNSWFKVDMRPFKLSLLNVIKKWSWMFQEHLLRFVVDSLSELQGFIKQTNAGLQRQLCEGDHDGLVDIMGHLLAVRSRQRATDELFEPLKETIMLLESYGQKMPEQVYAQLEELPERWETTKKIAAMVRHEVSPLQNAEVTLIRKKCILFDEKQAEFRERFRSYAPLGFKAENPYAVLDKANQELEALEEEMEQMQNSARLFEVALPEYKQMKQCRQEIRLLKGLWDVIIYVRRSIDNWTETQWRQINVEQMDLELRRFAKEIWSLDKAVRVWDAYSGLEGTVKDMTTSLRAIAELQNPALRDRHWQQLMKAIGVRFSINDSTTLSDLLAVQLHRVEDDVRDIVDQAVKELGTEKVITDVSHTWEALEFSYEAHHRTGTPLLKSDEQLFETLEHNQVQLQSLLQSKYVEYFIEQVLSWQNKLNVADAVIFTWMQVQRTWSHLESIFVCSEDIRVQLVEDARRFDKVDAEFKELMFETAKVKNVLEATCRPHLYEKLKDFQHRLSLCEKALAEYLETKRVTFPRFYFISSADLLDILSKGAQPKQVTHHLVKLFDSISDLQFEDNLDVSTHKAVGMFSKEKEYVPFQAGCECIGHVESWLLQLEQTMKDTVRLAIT

[4] = target: T4, MYC epitope-tagged TTC25 (mouse) (UniProt Q9D4B2)
T4 sequence: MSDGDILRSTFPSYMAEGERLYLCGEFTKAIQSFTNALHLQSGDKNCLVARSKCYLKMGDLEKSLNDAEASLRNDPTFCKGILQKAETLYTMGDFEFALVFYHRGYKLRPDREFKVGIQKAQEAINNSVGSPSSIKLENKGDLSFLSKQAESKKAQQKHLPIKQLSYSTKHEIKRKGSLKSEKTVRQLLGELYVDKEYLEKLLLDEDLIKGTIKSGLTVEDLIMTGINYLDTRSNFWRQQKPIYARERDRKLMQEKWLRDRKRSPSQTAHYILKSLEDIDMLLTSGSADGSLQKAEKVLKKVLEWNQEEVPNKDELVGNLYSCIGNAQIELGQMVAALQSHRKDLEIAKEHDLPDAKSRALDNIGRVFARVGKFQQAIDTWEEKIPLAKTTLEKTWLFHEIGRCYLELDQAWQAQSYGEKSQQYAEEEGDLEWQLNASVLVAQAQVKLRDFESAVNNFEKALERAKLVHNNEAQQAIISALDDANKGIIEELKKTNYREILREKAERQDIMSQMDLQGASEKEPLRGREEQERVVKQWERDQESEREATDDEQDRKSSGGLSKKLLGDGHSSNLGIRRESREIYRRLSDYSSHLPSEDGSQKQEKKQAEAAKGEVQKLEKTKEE

[5] = target: T5, MYC epitope-tagged DNAIC1 (mouse) (UniProt Q8C0M8)
T5 sequence: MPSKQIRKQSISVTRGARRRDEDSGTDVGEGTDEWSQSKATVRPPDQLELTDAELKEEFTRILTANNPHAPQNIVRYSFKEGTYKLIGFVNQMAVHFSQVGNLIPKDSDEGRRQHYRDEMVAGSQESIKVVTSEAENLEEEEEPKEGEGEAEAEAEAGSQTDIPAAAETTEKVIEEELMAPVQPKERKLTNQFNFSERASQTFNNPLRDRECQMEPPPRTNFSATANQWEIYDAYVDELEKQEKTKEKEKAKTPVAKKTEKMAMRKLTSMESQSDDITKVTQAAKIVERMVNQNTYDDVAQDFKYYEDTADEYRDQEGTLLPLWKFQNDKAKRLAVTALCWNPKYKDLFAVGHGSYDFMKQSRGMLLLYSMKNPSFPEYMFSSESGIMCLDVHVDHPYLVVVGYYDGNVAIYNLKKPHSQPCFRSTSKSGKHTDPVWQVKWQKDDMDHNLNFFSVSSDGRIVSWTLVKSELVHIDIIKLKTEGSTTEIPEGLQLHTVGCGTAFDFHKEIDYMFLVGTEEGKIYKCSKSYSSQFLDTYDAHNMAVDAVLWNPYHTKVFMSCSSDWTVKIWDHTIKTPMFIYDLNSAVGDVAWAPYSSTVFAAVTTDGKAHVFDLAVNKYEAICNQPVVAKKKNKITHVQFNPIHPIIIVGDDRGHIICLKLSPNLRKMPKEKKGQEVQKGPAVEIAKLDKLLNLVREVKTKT

[6] = target: T6, MYC epitope-tagged CCDC151 (mouse) (UniProt Q8BSN3)
T6 sequence: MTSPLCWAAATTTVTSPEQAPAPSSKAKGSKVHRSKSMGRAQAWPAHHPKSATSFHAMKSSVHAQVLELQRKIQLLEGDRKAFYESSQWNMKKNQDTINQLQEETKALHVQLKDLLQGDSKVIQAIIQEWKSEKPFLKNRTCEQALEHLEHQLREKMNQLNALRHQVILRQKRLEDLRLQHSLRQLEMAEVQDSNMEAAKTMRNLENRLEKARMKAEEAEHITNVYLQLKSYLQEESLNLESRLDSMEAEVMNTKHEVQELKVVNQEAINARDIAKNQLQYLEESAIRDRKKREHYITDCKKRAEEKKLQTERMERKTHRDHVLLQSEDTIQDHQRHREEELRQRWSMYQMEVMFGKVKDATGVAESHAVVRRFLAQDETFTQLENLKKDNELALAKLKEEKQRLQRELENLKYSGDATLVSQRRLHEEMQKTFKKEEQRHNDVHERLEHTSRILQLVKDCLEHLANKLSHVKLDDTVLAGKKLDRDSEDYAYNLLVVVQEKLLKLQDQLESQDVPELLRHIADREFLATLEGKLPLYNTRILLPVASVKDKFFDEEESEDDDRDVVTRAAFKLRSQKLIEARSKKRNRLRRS

B1: HA-tagged CFAP53 (protein, UniProt Q9D439 1-514)
chain: MYSQQFGTVPREFKGPTPKAVIIRAKPPKAQRAEQHLKRIQRSYHKYHTTLASIKSNEENRLKCDWIQRNNHKTFDSLVQARVQDAMQGFVINTEERRNKLRELLASEENEYFSEMQLKGETIEEKKDKMRERTKLLREKKEKERQEFVAEKLDQQFRERCEELRTKLASIHEKKVVEERNAQIEFNKELKRQKLVEEHLFARLWEEDRLAKERREAQEEKRQRELVQNTRLGLDAQVTSIQAQRQGARRMKEEEARILEQNKAQIKREDEQEKLQKQKRRQETRSSLKKAVQDKIESMQREYREDLDLNMKLVGRALQDLQDEADKKKQKREEMGREQKIYNDYLMQRREEEKAQEKELNRLLEDIKAKKLAEKDRELALQRAARKQLMNEVMNTRKLQVQERLQRKLREQEELALHEQRISESLKVLHQEDMEDFARRCALAEEYRNQLQMQIAHQQQAREAEKEEERQEFEAGLAANKACLDKIQRILSENQALSQNVHPMRRGYPDKPPL
With B1 the binding [1] was “binds”, the binding [2] was “binds” and the binding [3] was “binds”. The binding [4] was “binds”, the binding [5] was “binds” and the binding [6] was “no binding”.

Reference: paper PMC7817014
